Data reported in the supplement of paper PMC10498489.
The campaign covered roughly 2,300 compounds. About 330 (14%) showed activity.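 Rule for the calls: active = median modified Z-score above 1.96; inactive = 1.96 or below.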 The entries are a selection whose mix differs from that of the whole data set.

Tested on: HepG2 Srxn1-GFP reporter cells (+30 nM CDDO-Me)
Assay: Srxn1-GFP intensity median modified Z-score relative to plate median; higher = stronger NRF2 / oxidative stress reporter activation, active = hit call of the paper
Conditions: 10 µM; exposure time: 24h
Summary of the method: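 Compound at 10 μM was applied with an NRF2 activator at 30 nM to HepG2 Srxn1-GFP BAC reporter cells for 24 h, in DMSO at no more than 0.1%, using three replicate 96-well plates seeded at 20,000 cells per well. Fixed, Hoechst-stained cells were imaged confocally and cytoplasmic GFP was scored for each cell, with images under 100 cells left out. The figure reported is the replicate median of the per-plate modified Z-score of GFP intensity. Scaling relied on 1.4826 × median absolute deviation.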

SMILES | Srxn1-GFP intensity median modified Z-score
CC(CCC(=O)O)C1CCC2C3CCC4CC(O)CCC4(C)C3CCC12C (stereo not drawn) [euspeclibcmpd1980] | inactive: -0.547
CC(C)=CCOc1ccc2c(=O)c(-c3ccccc3)coc2c1 | inactive: 0.352
CCOC(=O)c1c(C)cc(O)cc1O [euspeclibcmpd1626] | inactive: -0.454
CN(C)CCCN1c2ccccc2Sc2ccc(Cl)cc21 [euspeclibcmpd59] | inactive: 0.609
NCCOB(c1ccccc1)c1ccccc1 [euspeclibcmpd2465] | active: 7.48
CC1(C)C=Cc2cc3ccc(=O)oc3cc2O1 [euspeclibcmpd1414] | inactive: -0.107
COc1ccnc(C[S+]([O-])c2nc3cc(OC(F)F)ccc3[nH]2)c1OC (stereo not drawn) [euspeclibcmpd709] | inactive: 0.763
O=c1[nH]c(=O)c2ccccc2o1 [euspeclibcmpd1179] | inactive: -0.085
NC(Cc1c[nH]c2ccccc12)C(=O)O (stereo not drawn) [euspeclibcmpd315] | inactive: 0.211
CC(=O)c1c(O)cc(O)cc1O [euspeclibcmpd1563] | inactive: 0.123
O=c1c(CC[S+]([O-])c2ccccc2)c(O)n(-c2ccccc2)n1-c1ccccc1 (stereo not drawn) [euspeclibcmpd282] | inactive: -0.197
CCCCN1CCCCC1C(=O)Nc1c(C)cccc1C (stereo not drawn) [euspeclibcmpd607] | inactive: -0.941
Cc1cc(=O)oc2c(O)c(O)ccc12 [euspeclibcmpd2382] | inactive: -0.448
CC(C)(C)c1ccc(C(O)CCCN2CCC(C(O)(c3ccccc3)c3ccccc3)CC2)cc1 (stereo not drawn) [euspeclibcmpd598] | inactive: -1.89
CC12CCCC(O)(C1)C1CC(C)(C)C1CC2 (stereo not drawn) [euspeclibcmpd1586] | inactive: -0.367
CC1OC(O[C@H]2/C=C/C=C/C=C/C=C/C=C/C=C/C=C/[C@H](C)[C@@H](O)[C@@H](C)[C@H](C)OC(=O)CC(O)CC(O)CCC(O)C(O)CC(O)C[C@]3(O)C[C@H](O)C(C(=O)O)C(C2)O3)C(O)[C@H](N)C1O (stereo partly drawn) [euspeclibcmpd24] | active: 1.97
COc1ccc(CC2c3cc(OC)c(OC)cc3CC[N+]2(C)CCC(=O)OCCCCCOC(=O)CC[N+]2(C)CCc3cc(OC)c(OC)cc3C2Cc2ccc(OC)c(OC)c2)cc1OC (stereo not drawn) [euspeclibcmpd881] | inactive: 0.609
O=c1ccn([C@@H]2O[C@H](COP(=O)(O)OP(=O)(O)OP(=O)(O)O)[C@@H](O)[C@H]2O)c(=O)[nH]1 [euspeclibcmpd2431] | inactive: 0.468
Cc1nc(-c2ccc(OCC(C)C)c(C#N)c2)sc1C(=O)O [euspeclibcmpd877] | inactive: 0.0147
C=C(C)C1CC=C(CO)CC1 (stereo not drawn) [euspeclibcmpd1438] | inactive: -0.37
CC=C(c1ccc(O)cc1)C(CC)c1ccc(O)cc1 (stereo not drawn) [euspeclibcmpd93] | inactive: 0.179
CC(=O)/N=c1\sc(S(N)(=O)=O)nn1C [euspeclibcmpd555] | inactive: 0.456

SMILES | Srxn1-GFP intensity median modified Z-score
COc1cc(NC(C)CCCN)c2ncccc2c1 (stereo not drawn) [euspeclibcmpd2194] | inactive: 1.23
CCCCC1(COC(=O)CCC(=O)O)C(=O)N(c2ccccc2)N(c2ccccc2)C1=O [euspeclibcmpd1965] | inactive: 0.461
CCOC(=O)c1ccc(N)cc1 [euspeclibcmpd34] | inactive: -0.333
CO[C@H]1CC(O[C@@H]2/C(C)=C/C[C@@H]3C[C@@H](C[C@]4(C=C[C@H](C)[C@@H](C5CCCCC5)O4)O3)OC(=O)C3=CC(C)[C@@H](O)[C@H]4OC/C(=C\C=C\[C@@H]2C)[C@@]34O)O[C@@H](C)C1O[C@H]1C[C@H](OC)[C@@H](O)[C@H](C)O1 (stereo partly drawn) [euspeclibcmpd131] | active: 8.87
Cc1ccc(S(=O)(=O)NC(=O)NN2CCCCCC2)cc1 [euspeclibcmpd417] | inactive: -0.293
COc1c(O)cc2oc3cc(O)c(CC=C(C)C)c(O)c3c(=O)c2c1C=CC(C)C [euspeclibcmpd1547] | active: 34.4
COC(=O)C1=C(C)N=C(C)C(C(=O)OCC(C)C)C1c1ccccc1[N+](=O)[O-] (stereo not drawn) [euspeclibcmpd766] | active: 10.8
O=C(COc1ccc(Cl)cc1)N1CCN(Cc2ccc3c(c2)OCO3)CC1 [euspeclibcmpd1129] | inactive: -0.239
CCN(CC)CCNc1ccc(CO)c2sc3ccccc3c(=O)c12 [euspeclibcmpd550] | active: 13.8
COc1ccc(C(=O)NCc2ccc(CN(C)C)cc2)cc1OC | inactive: 0.376
COc1cc(C/C=C/c2ccccc2)c(OC)cc1O [euspeclibcmpd1352] | inactive: -0.408
COc1ccc(-c2oc3ccccc3c(=O)c2OC)cc1 [euspeclibcmpd1341] | inactive: 0.287
NCC1CCC(C(=O)O)CC1 (stereo not drawn) [euspeclibcmpd963] | inactive: 0.0193
CN1CCCN=C1COC(=O)C(O)(c1ccccc1)C1CCCCC1 (stereo not drawn) [euspeclibcmpd639] | inactive: -0.754
C[C@H]1[C@H](C)CC[C@]2(C(=O)O)CC[C@]3(C)C(=CCC4[C@@]5(C)C[C@@H](O)[C@H](O)[C@@](C)(CO)C5[C@H](O)C[C@]43C)[C@H]12 (stereo partly drawn) [euspeclibcmpd1692] | inactive: -0.252
N#CC(c1ccc(Cl)cc1)c1c(Cl)cc(-n2ncc(=O)[nH]c2=O)cc1Cl (stereo not drawn) [euspeclibcmpd478] | active: 15
COc1cc(OC)c(C(=O)CCCN2CCCC2)c(OC)c1 [euspeclibcmpd1235] | inactive: -0.587
CCCN(CCC)C(=O)C(CCC(=O)O)NC(=O)c1ccccc1 (stereo not drawn) [euspeclibcmpd382] | inactive: -0.139
CC(=O)OC1C[C@@]2(C)C(C[C@@H](O)C3[C@]2(C)CC[C@H]2[C@H](C)[C@H](O)CC[C@]32C)C1=C(CCC=C(C)C)C(=O)O (stereo partly drawn) [euspeclibcmpd136] | inactive: -0.739
COc1ccccc1N1CCN(CC(O)COc2cccc3ccccc23)CC1 (stereo not drawn) [euspeclibcmpd1202] | inactive: -1.09
CCOC(=O)C(C)(C)Oc1ccc(Cl)cc1 [euspeclibcmpd583] | inactive: 0.232
